Measurements as given in patent US4336400A, “3-(Hydroxy or hydroxymethyl)-4-hydroxy-alpha(aminomethyl)benzyl alcohols and methods of use” (Sterling Drug Inc., priority 1978, dated 1982).
“And” between values parts separate entries of the source, which are not always exact repeats. Equal values may be shown once. For some of these results: At least one read-out could not be matched to a standard name with certainty. For some of these results: At least one structure is not confirmed: it was looked up by name or label, or the drawing left a doubt.

Legend:
[1] = test system: carbachol or histamine bronchoconstriction; test: Test Method I: bronchodilator activity, intravenous, anesthetized dog; assay type: in vivo; conditions: i.v., dose (mcg/kg) printed in the line
[2] = test system: carbachol or histamine bronchoconstriction; test: Test Method I: bronchodilator activity, intratracheal (aerosol application), anesthetized dog; assay type: in vivo
[3] = test system: guinea pig bronchioles constricted by carbachol; test: Bronchodilator Test Method II: in vitro, perfused guinea pig lung, bronchioles constricted by carbachol; conditions: for Bronchodilator Action, Duration (min) Mean: dose mcg(base) given
Experimental: Bronchodilator activity was tested in anesthetized dogs (Test Method I) and in vitro on the perfused guinea pig lung (Test Method II), using the following pharmacological test procedures:
In this method bronchodilator activity in vitro was determined by testing the effect of graded doses of the test compounds on guinea pig bronchioles constricted by carbachol, using the technique reported by Sollman and von Oettingen, Proc. Soc. Exp. Biol. Med., 25, 692 (1928) as modified by Tainter, Pedden, and James, J. Pharm. Exp. Ther., 51, 371 (1934) and by Luduena, von Euler, Tuller, and Lands, Arch. Intern. Pharmacol., III, 392 (1957).

[4] = test system: carbachol or histamine bronchoconstriction; test: Test Method I: bronchodilator activity, intraduodenal, anesthetized dog; assay type: in vivo; conditions: dose (salt) mcg/kg
[5] = 60 minutes, No. of actuations (dose in γ/act.) printed in the line, hydrochloride
[6] = 120 minutes, No. of actuations (dose in γ/act.) printed in the line, hydrochloride
[7] = (C), 240 minutes, No. of actuations (dose in γ/act.) printed in the line
[8] = (H), 5 minutes, No. of actuations (dose in γ/act.) printed in the line
[9] = (H), 30 minutes, No. of actuations (dose in γ/act.) printed in the line
[10] = (H), 60 minutes, No. of actuations (dose in γ/act.) printed in the line
[11] = (H), 120 minutes, No. of actuations (dose in γ/act.) printed in the line
[12] = 240 minutes after medication, * mean of 3 dogs
[13] = 60 minutes after medication, * mean of 3 dogs
[14] = 120 minutes after medication, * mean of 3 dogs
[15] = 5 minutes, No. of actuations (dose in γ/act.) printed in the line

SMILES: CC(C)(C)NCC(O)c1ccc(OC(=O)C(C)(C)C)c(OC(=O)C(C)(C)C)c1.Cl (stereo not drawn) [Example 5, 3,4-bis(pivalyloxy)-alpha-(tert-butylaminomethyl)-benzyl alcohol hydrochloride]
- Intravenous Activity, Bronchodilatation in Percent ([1]; 180 minutes after medication): 15%
- Intravenous Activity, Bronchodilatation in Percent ([1]; 240 minutes after medication): 0%
- Intratracheal Activity (Aerosol Application), bronchodilation ([2]; 1-2 min., No. of actuations (dose in γ/act.) printed in the line): 32-80
- Intratracheal Activity (Aerosol Application), bronchodilation ([2]; 2 min., No. of actuations (dose in γ/act.) printed in the line): 30-75
- Intratracheal Activity (Aerosol Application), bronchodilation [2, 5]: 30
- Intratracheal Activity (Aerosol Application), bronchodilation [2, 6]: 13
- Intratracheal Activity (Aerosol Application), bronchodilation ([2]; after 180 minutes (footnotes a, b; values in order of the dose levels), hydrochloride): 12 and 12-78
- Intratracheal Activity (Aerosol Application), bronchodilation ([2]; after 240 minutes (footnotes a, b; values in order of the dose levels; Ex. 5: 2 dogs, two dose level)): 18-77

SMILES: Cc1ccc(C(=O)Oc2ccc(C(O)CNC(C)C)cc2OC(=O)c2ccc(C)cc2)cc1 (stereo not drawn) [Example 89, 3,4-bis(p-toluyloxy)-alpha-(isopropylaminomethyl)-benzyl alcohol methanesulfonate]
- ED50 ([3]; Doryl conc. 1:5 million): 6.4 mcg(base)
- Bronchodilator Action, Duration (min) Mean ([3]; Doryl conc. 1:5 million): 125 ± 31 min

SMILES: COc1ccc(CC(=O)Oc2ccc(C(O)CNC(C)(C)C)cc2OC(=O)Cc2ccc(OC)cc2)cc1.Cl (stereo not drawn) [Example 118, 3,4-bis(p-methoxyphenylacetoxy)-alpha-(tert-butylaminomethyl)benzyl alcohol hydrochloride]
- Intravenous Activity, Bronchodilatation in Percent ([1]; 5 minutes after medication, hydrochloride): 68% and 100%
- Intravenous Activity, Bronchodilatation in Percent ([1]; 30 minutes after medication, hydrochloride): 61% and 60%
- Intravenous Activity, Bronchodilatation in Percent ([1]; 60 minutes after medication, hydrochloride): 35% and 45%
- Intravenous Activity, Bronchodilatation in Percent ([1]; 120 minutes after medication, hydrochloride): 7% and 12%
- Intratracheal Activity (Aerosol Application), bronchodilation ([2]; 5 minutes, No. of actuations (dose in γ/act.) printed in the line, hydrochloride): 60 and 56
- Intratracheal Activity (Aerosol Application), bronchodilation ([2]; 30 minutes, No. of actuations (dose in γ/act.) printed in the line, hydrochloride): 44 and 43
- Intratracheal Activity (Aerosol Application), bronchodilation [2, 5]: 36 and 34
- Intratracheal Activity (Aerosol Application), bronchodilation [2, 6]: 32 and 21

SMILES: COc1ccc(C(=O)Oc2ccc(C(O)CNC(C)(C)C)cc2O)cc1.Cl (stereo not drawn) [Example 120, 3-hydroxy-4-(p-anisoyloxy)-alpha-(tert-butylaminomethyl)benzyl alcohol hydrochloride]
- Intratracheal Activity (Aerosol Application), bronchodilation [2, 7]: 0
- Intratracheal Activity (Aerosol Application), bronchodilation [2, 8]: 52
- Intratracheal Activity (Aerosol Application), bronchodilation [2, 9]: 40
- Intratracheal Activity (Aerosol Application), bronchodilation [2, 10]: 44
- Intratracheal Activity (Aerosol Application), bronchodilation [2, 11]: 4
- Intratracheal Activity (Aerosol Application), bronchodilation ([2]; (H), 180 minutes, No. of actuations (dose in γ/act.) printed in the line): 0

SMILES: Cc1ccc(C(=O)Oc2ccc(C(O)CNC(C)(C)C)cc2OC(=O)c2ccccc2)cc1 (stereo not drawn) [Example 123, 3-benzoyloxy-4-(p-toluyloxy)-alpha-(tert-butylaminomethyl)benzyl alcohol methanesulfonate]
- Intratracheal Activity (Aerosol Application), bronchodilation [2, 7]: 25
- Intratracheal Activity (Aerosol Application), bronchodilation ([2]; (H), 90 minutes, No. of actuations (dose in γ/act.) printed in the line): 4
- Intratracheal Activity (Aerosol Application), bronchodilation ([2]; (H), 150 minutes, No. of actuations (dose in γ/act.) printed in the line): 50

SMILES: Cc1cccc(C(=O)Oc2ccc(C(O)CNC(C)(C)C)cc2O)c1 (stereo not drawn) [Example 139, 3-hydroxy-4-(m-toluyloxy)-alpha-(tert-butylaminomethyl)benzyl alcohol methanesulfonate]
- Intravenous Activity, Bronchodilatation in Percent ([1]; 5 minutes after medication): 81% and 74%
- Intravenous Activity, Bronchodilatation in Percent ([1]; 60 minutes after medication): 24% and 22%
- Intravenous Activity, Bronchodilatation in Percent ([1]; 180 minutes after medication): 9%
- Intravenous Activity, Bronchodilatation in Percent ([1]; 300 minutes after medication): 10%
- Intratracheal Activity (Aerosol Application), bronchodilation ([2]; (H)(C), 5 minutes, No. of actuations (dose in γ/act.) printed in the line): 71 and 83
- Intratracheal Activity (Aerosol Application), bronchodilation ([2]; (H)(C), 30 minutes, No. of actuations (dose in γ/act.) printed in the line): 53 and 64
- Intratracheal Activity (Aerosol Application), bronchodilation ([2]; (H)(C), 60 minutes, No. of actuations (dose in γ/act.) printed in the line): 33 and 52
- Intratracheal Activity (Aerosol Application), bronchodilation ([2]; (H)(C), 120 minutes, No. of actuations (dose in γ/act.) printed in the line): 13 and 23
- Intratracheal Activity (Aerosol Application), bronchodilation ([2]; (H)(C), 150 minutes, No. of actuations (dose in γ/act.) printed in the line): 18
- Intratracheal Activity (Aerosol Application), bronchodilation [2, 8]: 43
- Intratracheal Activity (Aerosol Application), bronchodilation [2, 9]: 33
- Intratracheal Activity (Aerosol Application), bronchodilation [2, 10]: 19
- Intratracheal Activity (Aerosol Application), bronchodilation [2, 11]: 15
- ED50 ([3]; Doryl conc. 1:5 million): 2.64 mcg(base)
- Bronchodilator Action, Duration (min) Mean ([3]; Doryl conc. 1:5 million): 29.8 ± 4.4 min

SMILES: CC(=O)Oc1ccc(C(O)CNC(C)(C)C)cc1OC(=O)c1ccccc1C (stereo not drawn) [Example 147, 3-(o-toluyloxy)-4-acetoxy-alpha-(tert-butylaminomethyl)benzyl alcohol methanesulfonate]
- Intravenous Activity, Bronchodilatation in Percent ([1]; 120 minutes after medication): 4%
- ED50 ([3]; Doryl conc. 1:10 million): 1.9 mcg(base)
- Bronchodilator Action, Duration (min) Mean ([3]; Doryl conc. 1:10 million): 15.9 ± 3.3 min

SMILES: COc1ccc(C(=O)Oc2cc(C(O)CNC(C)(C)C)ccc2OC(C)=O)cc1 (stereo not drawn) [Example 149, 3-(p-anisoyloxy)-4-acetoxy-alpha-(tert-butylaminomethyl)benzyl alcohol methanesulfonate]
- Intravenous Activity, Bronchodilatation in Percent ([1]; 5 minutes after medication): 54% and 100%
- Intravenous Activity, Bronchodilatation in Percent ([1]; 30 minutes after medication): 19% and 32%
- Intravenous Activity, Bronchodilatation in Percent ([1]; 60 minutes after medication): 19% and 24%
- Intraduodenal Activity, Bronchodilation in Percent ([4]; 300 minutes after medication): 35%
- ED50 ([3]; Doryl conc. 1:10 million): 0.91 mcg(base)
- Bronchodilator Action, Duration (min) Mean ([3]; Doryl conc. 1:10 million): 13.2 ± 1.9 min

SMILES: CC(=O)OCc1cc(C(O)CNC(C)(C)C)ccc1OC(=O)c1ccc(C)cc1 (stereo not drawn) [Example 150, 3-(acetoxymethyl)-4-(p-toluyloxy)-alpha-(tert-butylaminomethyl)benzyl alcohol methanesulfonate]
- Intravenous Activity, Bronchodilatation in Percent ([1]; 60 minutes after medication): 44% and 54% and 67%
- Intravenous Activity, Bronchodilatation in Percent ([1]; 120 minutes after medication): 44% and 40% and 60%
- Intravenous Activity, Bronchodilatation in Percent ([1]; 180 minutes after medication): 32% and 30% and 52%
- Intraduodenal Activity, Bronchodilation in Percent [4, 12]: 39%
- ED30 ([3]; Doryl conc. 1:5 million): 9.3 mcg(base)
- Bronchodilator Action, Duration (min) Mean ([3]; Doryl conc. 1:5 million): 25.5 ± 16.2 min

SMILES: COc1ccc(C(=O)Oc2ccc(C(O)CNC(C)(C)C)cc2COC(C)=O)cc1 (stereo not drawn) [Example 151, 3-(acetoxymethyl)-4-(p-anisoyloxy)-alpha-(tert-butylaminomethyl)benzyl alcohol methanesulfonate]
- Intravenous Activity, Bronchodilatation in Percent ([1]; 5 minutes after medication): 43% and 54% and 85%
- Intravenous Activity, Bronchodilatation in Percent ([1]; 60 minutes after medication): 50% and 41% and 81%
- Intravenous Activity, Bronchodilatation in Percent ([1]; 120 minutes after medication): 43% and 54% and 73%
- Intraduodenal Activity, Bronchodilation in Percent ([4]; 30 minutes after medication): 40% and 63%
- Intraduodenal Activity, Bronchodilation in Percent [4, 13]: 36% and 66%
- Intraduodenal Activity, Bronchodilation in Percent [4, 14]: 36% and 66%
- ED50 ([3]; Doryl conc. 1:5 million): 5.1 mcg(base)
- Bronchodilator Action, Duration (min) Mean ([3]; Doryl conc. 1:5 million): 67.3 ± 33.7 min

SMILES: CC(C)(C)NCC(O)c1ccc(O)c(O)c1 (stereo not drawn) [Ref. Cpd. I, 3,4-Dihydroxy-alpha-(tert-butylaminomethyl)benzyl alcohol, reference compound]
- Intratracheal Activity (Aerosol Application), bronchodilation [2, 15]: 38-98
- Intraduodenal Activity, Bronchodilation in Percent ([4]; 10 minutes after medication, * mean of 3 dogs): 34% and 40% and 66%
- Intraduodenal Activity, Bronchodilation in Percent ([4]; 30 minutes after medication): 41% and 60% and 59%
- Intraduodenal Activity, Bronchodilation in Percent [4, 13]: 44% and 35% and 46%
- Intraduodenal Activity, Bronchodilation in Percent [4, 14]: 27% and 30% and 54%
- Intraduodenal Activity, Bronchodilation in Percent [4, 12]: 0%

SMILES: CC(C)NCC(O)c1ccc(O)c(O)c1 (stereo not drawn) [Ref. Cpd. II, 3,4-Dihydroxy-alpha-(isopropylaminomethyl)benzyl alcohol, reference compound]
- Intratracheal Activity (Aerosol Application), bronchodilation [2, 15]: 60-70 and 57-80
- Intratracheal Activity (Aerosol Application), bronchodilation ([2]; 30 minutes, No. of actuations (dose in γ/act.) printed in the line): 0
